Assay [1] addresses T1, full-length KIF1C(WT)−Flag−EGFP (UniProt O43896).
T1 sequence: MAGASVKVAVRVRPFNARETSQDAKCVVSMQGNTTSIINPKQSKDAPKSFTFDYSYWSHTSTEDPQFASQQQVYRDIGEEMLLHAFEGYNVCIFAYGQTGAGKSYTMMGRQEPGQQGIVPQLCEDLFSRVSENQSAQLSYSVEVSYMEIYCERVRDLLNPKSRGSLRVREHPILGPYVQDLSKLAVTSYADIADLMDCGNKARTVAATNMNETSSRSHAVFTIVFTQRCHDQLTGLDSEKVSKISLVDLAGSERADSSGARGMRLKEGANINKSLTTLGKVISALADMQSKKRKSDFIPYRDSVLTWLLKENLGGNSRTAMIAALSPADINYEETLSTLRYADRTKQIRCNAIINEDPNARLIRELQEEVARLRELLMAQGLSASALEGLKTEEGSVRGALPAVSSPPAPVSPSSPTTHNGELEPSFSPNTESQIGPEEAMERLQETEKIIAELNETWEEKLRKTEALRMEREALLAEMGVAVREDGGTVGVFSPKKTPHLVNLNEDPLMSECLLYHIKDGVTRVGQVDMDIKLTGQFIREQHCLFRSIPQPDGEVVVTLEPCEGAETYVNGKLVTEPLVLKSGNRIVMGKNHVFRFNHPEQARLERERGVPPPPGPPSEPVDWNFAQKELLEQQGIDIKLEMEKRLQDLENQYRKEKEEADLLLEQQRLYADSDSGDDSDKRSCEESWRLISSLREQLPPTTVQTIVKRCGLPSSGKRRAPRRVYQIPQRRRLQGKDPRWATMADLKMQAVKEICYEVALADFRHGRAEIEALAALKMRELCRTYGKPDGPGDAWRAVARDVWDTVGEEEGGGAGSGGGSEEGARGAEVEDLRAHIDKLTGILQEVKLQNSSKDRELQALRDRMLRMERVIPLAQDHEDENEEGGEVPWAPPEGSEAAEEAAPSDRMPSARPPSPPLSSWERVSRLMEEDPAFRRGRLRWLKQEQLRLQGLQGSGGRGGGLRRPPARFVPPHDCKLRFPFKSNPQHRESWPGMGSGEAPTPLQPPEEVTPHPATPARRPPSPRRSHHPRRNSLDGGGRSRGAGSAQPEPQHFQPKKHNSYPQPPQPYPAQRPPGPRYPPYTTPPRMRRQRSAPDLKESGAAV
Kind of assay: co-IP; HEK293T cells co-expressing KIF1C−Flag−EGFP and Hook3−Myc−FuRed, lysed 16 h after transfection in Pierce IP lysis buffer; immunoprecipitation with anti-Flag M2 and protein A/G agarose, immunoblot with anti-Myc and anti-Flag. Background: Immunoblotting shows a protein as a band on a membrane.

Assay [2] deals with T2, His10 − MBP − KIF1C(714–809) (UniProt O43896).
T2 sequence: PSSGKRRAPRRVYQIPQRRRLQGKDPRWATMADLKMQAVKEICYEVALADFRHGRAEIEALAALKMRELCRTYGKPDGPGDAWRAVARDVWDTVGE
Kind of assay: native gel or EMSA; His10−MBP-tagged recombinant proteins alone or mixed (10 µM; molar ratio 1:1), incubated 16 h at 4 °C, 10% native gel, 120 V for 2 h on ice, Coomassie staining; both purified.

Assay [3] concerns the target T3, His10 − MBP − KIF1C(714–809; Y757A ∙ F764A) (UniProt O43896).
T3 sequence: T2 sequence with Y44A, F51A
Described as above.

In assay [4] the target is T4, His10 − MBP−Hook3(553–624) (UniProt Q86VS8).
T4 sequence: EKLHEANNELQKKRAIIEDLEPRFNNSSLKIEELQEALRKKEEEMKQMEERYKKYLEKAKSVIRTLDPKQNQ
The assay is described as above.

Positions count from the first letter of the chain named. Names may count otherwise. No constants are given. Whether binding was seen depends on the method and setting. For part of these data: Binding seen in cells or lysates may run through a third protein. Some entries that bind do so weakly or less than the wild type. Where a sequence is shown, tags or fusion partners need not be part of it.

B1: full-length Hook3(WT)−Myc−FuRed (protein, UniProt Q86VS8 1-718)
chain: MFSVESLERAELCESLLTWIQTFNVDAPCQTVEDLTNGVVMAQVLQKIDPAYFDENWLNRIKTEVGDNWRLKISNLKKILKGILDYNHEILGQQINDFTLPDVNLIGEHSDAAELGRMLQLILGCAVNCEQKQEYIQAIMMMEESVQHVVMTAIQELMSKESPVSAGNDAYVDLDRQLKKTTEELNEALSAKEEIAQRCHELDMQVAALQEEKSSLLAENQVLMERLNQSDSIEDPNSPAGRRHLQLQTQLEQLQEETFRLEAAKDDYRIRCEELEKEISELRQQNDELTTLADEAQSLKDEIDVLRHSSDKVSKLEGQVESYKKKLEDLGDLRRQVKLLEEKNTMYMQNTVSLEEELRKANAARSQLETYKRQVVELQNRLSEESKKADKLDFEYKRLKEKVDSLQKEKDRLRTERDSLKETIEELRCVQAQEGQLTTQGLMPLGSQESSDSLAAEIVTPEIREKLIRLQHENKMLKLNQEGSDNEKIALLQSLLDDANLRKNELETENRLVNQRLLEVQSQVEELQKSLQDQGSKAEDSVLLKKKLEEHLEKLHEANNELQKKRAIIEDLEPRFNNSSLKIEELQEALRKKEEEMKQMEERYKKYLEKAKSVIRTLDPKQNQGAAPEIQALKNQLQERDRLFHSLEKEYEKTKSQREMEEKYIVSAWYNMGMTLHKKAAEDRLASTGSGQSFLARQRQATSSRRSYPGHVQPATAR
Consider B1, for which the binding result in assay [1] is reported as “binds”.

B2: His10 − MBP−Hook3(553–624; V614E) (domain or fragment, UniProt Q86VS8 553-624)
chain: T4 sequence with V62E
Take B2: the binding entry in assay [2] and in assay [3] was “no binding” throughout.

B3: His10 − MBP−Hook3(553–624) (domain or fragment, UniProt Q86VS8 553-624)
chain: T4 sequence
With B3, the binding result in assay [3] was “no binding”.

B4: His10 − MBP−Hook3(553–590) (domain or fragment, UniProt Q86VS8 553-590)
chain: EKLHEANNELQKKRAIIEDLEPRFNNSSLKIEELQEAL
Take B4: the binding entry in assay [2] was “no binding (tested: 10 µM)”.

B5: His10 − MBP − PTPN21(19–308) (domain or fragment, UniProt Q16825 19-308)
chain: SKSCLVARIQLLNNEFVEFTLSVESTGQESLEAVAQRLELREVTYFSLWYYNKQNQRRWVDLEKPLKKQLDKYALEPTVYFGVVFYVPSVSQLQQEITRYQYYLQLKKDILEGSIPCTLEQAIQLAGLAVQADFGDFDQYESQDFLQKFALFPVGWLQDEKVLEEATQKVALLHQKYRGLTAPDAEMLYMQEVERMDGYGEESYPAKDSQGSDISIGACLEGIFVKHKNGRHPVVFRWHDIANMSHNKSFFALELANKEETIQFQTEDMETAKYIWRLCVARHKFYRLNQ
For the molecule B5, the binding result in assay [4] was “no binding”.

The record behind these values is paper PMC12152161.
